Data reported in PubChem BioAssay (NCATS).
Inconclusive means that the source gave no clear call. Such entries were picked first, then a sample of the others. For some assays here: A potency beside an inconclusive call is a rough fit, not a confirmed value. For some assays here: “Side channel” marks fits to a control or component signal instead of the main read-out. Activity calls are given as the source filed them. Unless noted, calls come from the whole dose curve; as a rule, active = well fitted curve in the direction sought with a large enough effect; inconclusive = small, poorly fitted or top-dose-only effect, or another doubt; inactive = no such curve, though single readings can be large; an effect the other way counts as inactive or inconclusive.

Legend:
[1] = target: Chromobox protein homolog 1 (Homo sapiens) (UniProt P83916); test: qHTS Validation Assay for Inhibitors of HP1-beta Chromodomain Interactions with Methylated Histone Tails (AID 488953); note: potency is the fitted concentration of half-maximal effect; nearly all actives have a fitted effect of over 50% in size
Summary of the method: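 AlphaScreen proximity signal from streptavidin donor and nickel chelate acceptor beads (final 10 ug/mL) after 30 min dark incubation. Compounds had 30 min at room temperature with preformed complex of 50 nM HP1-beta and 50 nM b-H3(1-18)K9me3 in PBS pH 7.4 with 0.01% Tween-20.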

[2] = Validation screen for small molecules that induce genotoxicity in human embryonic kidney (HEK293T) cells expressing luciferase-tagged ELG1 (AID 493106); note: potency is the fitted concentration of half-maximal effect
Summary of the method: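 ELG1-luciferase reporter readout (ONE-Glo, 30 min, room temperature) after 16 hr compound treatment at 37 °C of HEK293T cells at 2,000 per well. Rising luminescence flags genotoxic stress.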

[3] = target: ATPase family AAA domain-containing protein 5 (Homo sapiens) (UniProt Q96QE3); test: Validation screen for small molecules that inhibit ELG1-dependent DNA repair in human embryonic kidney (HEK293T) cells expressing luciferase-tagged ELG1 (AID 493107); details: HEK293T ELG1-luciferase level, luminescence, 5-fluorouridine co-treatment, 16 h; series mostly up to 46.1 µM; note: potency is the fitted concentration of half-maximal effect; nearly all actives have a fitted effect of over 70% in size
Summary of the method: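 Luciferase read-out, ONE-Glo, 30 min at room temperature, follows 16 h co-exposure at 37 C of compound and the DNA-damaging agent 5-fluorouridine. Cells: HEK293T with ELG1-luciferase fusion, 2,000 per well, DMSO as vehicle.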

[4] = Validation screen for small molecules that induce DNA re-replication in SW480 colon adenocarcinoma cells (AID 504364); note: potency is the fitted concentration of half-maximal effect
Summary of the method: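 Image-based DNA content read-out: Hoechst stain 40 min, total nuclear fluorescence intensity (ex 405 nm, em 500-530 nm) after 48 h compound exposure of 250 SW480 cells/well at 37 C, 5% CO2, versus DMSO vehicle.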

[5] = target: Peptidyl-prolyl cis-trans isomerase NIMA-interacting 1 (Homo sapiens) (UniProt Q13526); test: qHTS Validation Assay to Find Inhibitors of Pin1 (AID 504536; active = well fitted inhibition curve with a large enough effect in the polarisation, with a control signal flat, not every such curve was filed as active; inconclusive = small, poorly fitted or top-dose-only effect, or effect the other way; the % refers to the polarisation; note: potency is the fitted concentration of half-maximal effect)
Summary of the method: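 Fluorescence polarization competition: compounds (titration) displace HiFluor-488-labeled Pin1-1b peptide from Pin1 (0.3 uM final) in pH 7.5 HEPES buffer with DTT, 10 min at room temperature; %Activity normalized to no-enzyme wells, curves fitted.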

[6] = qHTS for Inhibitors of ATXN expression: Validation of Cytotoxic Assay (AID 588349); note: potency is the fitted concentration of half-maximal effect
Summary of the method: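 Cytotoxicity counter-screen: ATP-based luminescent viability (CellTiter Glo) after 72 hr exposure of HEK293 cells to a compound titration at 37 degrees C.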

[7] = qHTS for Inhibitors of ATXN expression: Validation (AID 588378); note: potency is the fitted concentration of half-maximal effect; nearly all actives have a fitted effect of over 75% in size
Summary of the method: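 HEK293 cells carrying ATXN2-firefly luciferase reporter, treated with compound 24 h at 37 °C. Viability read first by CellTiter-Fluor (405/525 nm), then reporter expression by Bright-Glo luminescence; controls were a known ATXN2 expression inhibitor and a luciferase inhibitor.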

[8] = target: DNA dC->dU-editing enzyme APOBEC-3G (Homo sapiens) (UniProt Q9HC16); test: qHTS for inhibitors of Vif-A3G interactions: Validation (AID 588379); note: potency is the fitted concentration of half-maximal effect
Summary of the method: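 Yellow fluorescence (Ex 488, Em 500-530) of Vif-coexpressing HeLa A3G-eYFP cells, scanned by Acumen cytometer, reports blocked A3G degradation. Cells plated at 700/well overnight at 37 deg C before compound addition, then a further overnight compound incubation at 37 deg C.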

[9] = target: Glutaminase kidney isoform, mitochondrial (Homo sapiens) (UniProt O94925); test: qHTS for Inhibitors of Glutaminase (GLS): LOPAC Validation (AID 624146); note: potency is the fitted concentration of half-maximal effect; nearly all actives have a fitted effect of over 60% in size
Summary of the method: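 hKGA in 45 mM KH2PO4 (pH 8.2), 0.02% Tween-20 with compound, then 1mM L-Glutamine (stock as added) plus glutamate oxidase/HRP/Amplex red coupling mix. Fluorescence read initially and after 30 min at RT; signal change reflects glutamate formation.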

[10] = qHTS of Nrf2 Activators: LOPAC Validation (AID 624149); note: potency is the fitted concentration of half-maximal effect
Summary of the method: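 Luciferase signal from ARE activation, read with Steady-Glo after 30 min at room temperature. Compounds were pin-transferred onto AREc32_Fluc cells (1000/well, OPTI-MEM/5% FBS, seeded overnight) and left 24 hr at 37 deg C.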

[11] = qHTS for Activators of Parkin Expression: LOPAC Validation Assay (NLuc Reporter) (AID 720572; note: potency is the fitted concentration of half-maximal effect)
Summary of the method: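 NLuc signal, read 10 min after reagent and following a prior FLuc read, is normalized to DMSO (0) and positive controls (100%). Cells: neuronal Parkin-promoter coincidence reporter line; compounds tested 7-point, 24 h, 37 C, 5% CO2.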

[12] = qHTS for Activators of Parkin Expression: LOPAC Validation Assay (FLuc Reporter) (AID 720573; note: potency is the fitted concentration of half-maximal effect)
Summary of the method: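 Neuronal cell line stably expressing FLuc/NLuc coincidence reporter under the Parkin promoter, 1,500 cells/well, dosed 24 h after seeding in 7-point series for 24 h at 37 C. FLuc luminescence read; normalized to DMSO and positive control (100%).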

[13] = qHTS Assay for Identifying Gametocytocidal Compounds (AID 743244); note: potency is the fitted concentration of half-maximal effect; details: P. falciparum 3D7 stage III-V gametocytes, alamarBlue, 72 h; max response: active compounds read low
Summary of the method: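 Stage III-V P. falciparum 3D7 gametocytes, 20,000 per well, were exposed to compounds for 72 h at 37C, 5% CO2. AlamarBlue was then added for 24 h and viability was read as fluorescence at Ex 525/Em 598 nm.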

[14] = P-glycoprotein substrates identified in KB-8-5-11 adenocarcinoma cell line, qHTS therapeutic library screen (AID 1346987); details: activity change, negative = cytotoxicity: at 44.5 µM (top of the series); note: potency is the fitted concentration of half-maximal effect; nearly all actives have a fitted effect of over 65% in size
Summary of the method: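 Compounds are pinned in dose-response onto KB-8-5-11 cells (500 cells/well, colchicine-free medium) and left 72 h at 37 degree C. CellTiter-Glo luminescence then yields AC50 values.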

[15] = Natriuretic polypeptide receptor (hNpr1) antagonism - Pilot counterscreen GloSensor control cell line (AID 1347045; calls by dose curve; note: potency is the fitted concentration of half-maximal effect)
Summary of the method: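 Control counterscreen: luciferase cGMP-biosensor HEK293 cells (no Npr1) received compound for 30 min at room temperature after GloSensor substrate loading. Luminescence was measured before and 20 min after soluble guanylyl cyclase activation by 50 uM nitroprusside.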

[16] = target: Atrial natriuretic peptide receptor 1 (Homo sapiens) (UniProt P16066); test: Natriuretic polypeptide receptor (hNpr1) antagonism - Pilot screen (AID 1347049; calls by dose curve;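 note: agonist-evoked cGMP luminescence read 20 min after hNppA addition; potency is the fitted concentration of half-maximal effect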)
Summary of the method: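 cGMP-sensor HEK293/hNpr1 cells, 1500/well, plated overnight at 37C. 2% GloSensor reagent, 2 h RT. Compound (23 nL pin transfer) 30 min RT, baseline luminescence pre-read. 0.1 nM hNppA, 20 min RT, post-read.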

[17] = target: Atrial natriuretic peptide receptor 2 (Homo sapiens) (UniProt P20594); test: Natriuretic polypeptide receptor (hNpr2) antagonism - Pilot subtype selectivity assay (AID 1347050; calls by dose curve; note: potency is the fitted concentration of half-maximal effect)
Summary of the method: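 Luminescence from a genetically encoded cGMP luciferase biosensor in hNpr2-expressing HEK293 cells is read before and 20 min after adding 1 nM hNppC. Test compounds, in interplate 1:5 titrations, are added 30-50 min ahead of the agonist.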

[18] = target: Tyrosine-protein phosphatase non-receptor type substrate 1 (Homo sapiens) + Leukocyte surface antigen CD47 (Homo sapiens) (UniProt P78324+Q08722); test: CD47-SIRPalpha protein protein interaction - HTRF assay qHTS validation (AID 1347058; active = well fitted curve in the direction sought with a large enough effect in the signal ratio, not every such curve was filed as active; inconclusive = small, poorly fitted or top-dose-only effect, or effect the other way, or a change in a side signal; inactive = no such curve, though single readings can be large or run the other way; the % refers to the signal ratio; note: potency is the fitted concentration of half-maximal effect)
Summary of the method: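 Soluble extracellular domains (6His-CD47, Avi-tag-biotinylated SIRPalpha) in PBS pH 7.4 with 0.05% IGEPAL CA-630. Compounds were preincubated 30 min at RT with CD47 and anti-His-Eu, then SIRPalpha and SAV-XL665 were added. TR-FRET 665/615 ratio.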

[19] = target: N-terminal Xaa-Pro-Lys N-methyltransferase 1 (Homo sapiens) (UniProt Q9BV86); test: qHTS Assay for Inhibitors of N-terminal methyltransferase 1 (NTMT1): LOPAC validation of the NTMT1 SAHH-coupled ThioGlo3 Assay (AID 1347143);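 note: SAH from peptide methylation measured as thiol fluorescence via SAHH coupling and ThioGlo3; potency is the fitted concentration of half-maximal effect; nearly all actives have a fitted effect of over 70% in size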
Summary of the method: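 Steps: dispense 125nM NTMT1; pin-transfer test compounds at several concentrations, with 1uM RCC1-6 peptide as control; incubate 1 min; start with reagent holding 100uM SAM, 10uM SAHH, 15uM ThioGlo3; read at 0 and 30 min.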

[20] = qHTS to identify inhibitors of the type 1 interferon - major histocompatibility complex class I in skeletal muscle: primary screen against the NCATS LOPAC collection (AID 1347405); details: iHSKM muscle cells, IFN-b-induced MHC-I HiBiT luminescence, 24 h; activity change, negative = inhibition: at 45.9 µM (top of the series);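 note: lytic HiBiT luminescence reporting HLA-B protein level; potency is the fitted concentration of half-maximal effect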
Summary of the method: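 After 24 h at 37 C with compounds (7-point, 1:4.3 dilutions, 46 uM top final) plus 4 ng/ml IFN-beta, luminescence from lytic HiBiT detection was measured. HLA-B*08:01 in C25cl48 myoblasts carried an endogenous C-terminal HiBiT tag; medium lacked dexamethasone.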

[21] = Primary qHTS for inhibitors of La Crosse Virus (LACV) - induced cell death in SH-SY5Y cells (AID 1508616); note: potency is the fitted concentration of half-maximal effect
Summary of the method: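 Rescue of virus-induced death was read as ATPLite luminescence after 6 days at 37C, scaled between DMSO wells with LACV and without virus. Cells were SH-SY5Y, 6000/well, infected at 0.01 MOI after compound addition.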

[22] = target: Calcium and integrin-binding protein 1 (Homo sapiens) (UniProt Q99828); test: Validation qHTS for Identification of Calcium Integrin Binding protein 1 (CIB1) Competitor (AID 1508618); note: potency is the fitted concentration of half-maximal effect
Summary of the method: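 Displacement of FITC-alphaIIb peptide (100 nM) from CIB1-GST (1 uM) is monitored by polarization in quantitative HTS format; buffer carries 5 mM CaCl2 and 125 mM NaCl at pH 7.4, incubations are at room temperature.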

[23] = Primary qHTS for small molecule stabilizers of the endoplasmic reticulum resident proteome: Secreted ER Calcium Modulated Protein (SERCaMP) assay (AID 1508630); details: SH-SY5Y GLuc-SERCaMP (Gaussia luciferase released on ER calcium loss) secretion, thapsigargin, luminescence; activity change, negative = inhibition: at 38.4 µM (top of the series) unless noted
Summary of the method: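 The SH-SY5Y reporter protocol was run at 3 concentrations up to 38.3 uM (primary) or 11 concentrations (follow-up): 16 h compound, 100 nM thapsigargin for 4 h, then extracellular luciferase luminescence.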

Measured: Potency
Tags give direction and shape of the fitted curve or compound fluorescence and quenching.

UniProt P20594, sequence (P20594 whole entry, looked up): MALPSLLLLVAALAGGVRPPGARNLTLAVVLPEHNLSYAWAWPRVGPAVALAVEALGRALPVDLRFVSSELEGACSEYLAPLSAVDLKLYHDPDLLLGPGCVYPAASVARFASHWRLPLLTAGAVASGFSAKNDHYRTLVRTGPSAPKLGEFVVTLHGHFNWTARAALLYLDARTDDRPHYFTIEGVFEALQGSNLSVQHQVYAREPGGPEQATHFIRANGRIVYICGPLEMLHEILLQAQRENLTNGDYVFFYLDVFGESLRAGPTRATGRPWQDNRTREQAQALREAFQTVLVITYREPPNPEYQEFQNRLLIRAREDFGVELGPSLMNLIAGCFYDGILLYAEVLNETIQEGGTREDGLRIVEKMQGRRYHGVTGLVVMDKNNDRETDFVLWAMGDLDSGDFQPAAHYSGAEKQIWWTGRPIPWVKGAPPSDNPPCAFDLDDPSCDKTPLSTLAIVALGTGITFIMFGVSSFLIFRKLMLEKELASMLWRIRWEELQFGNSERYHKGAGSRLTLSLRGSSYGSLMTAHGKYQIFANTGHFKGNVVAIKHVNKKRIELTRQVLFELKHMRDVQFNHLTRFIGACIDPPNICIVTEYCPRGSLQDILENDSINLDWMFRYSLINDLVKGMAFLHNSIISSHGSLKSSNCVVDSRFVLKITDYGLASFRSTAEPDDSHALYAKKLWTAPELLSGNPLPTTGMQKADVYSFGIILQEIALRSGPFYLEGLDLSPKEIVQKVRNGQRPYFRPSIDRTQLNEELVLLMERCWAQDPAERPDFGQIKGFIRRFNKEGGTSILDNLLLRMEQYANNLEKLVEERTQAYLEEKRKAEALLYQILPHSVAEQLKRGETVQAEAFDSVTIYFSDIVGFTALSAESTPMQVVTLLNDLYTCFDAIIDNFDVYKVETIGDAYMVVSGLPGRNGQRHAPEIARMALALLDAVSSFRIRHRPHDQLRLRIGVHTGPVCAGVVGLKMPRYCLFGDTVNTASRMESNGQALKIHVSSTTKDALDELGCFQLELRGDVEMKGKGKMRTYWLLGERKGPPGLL
UniProt Q96QE3, sequence (Q96QE3 whole entry, looked up, the tested form may be a part): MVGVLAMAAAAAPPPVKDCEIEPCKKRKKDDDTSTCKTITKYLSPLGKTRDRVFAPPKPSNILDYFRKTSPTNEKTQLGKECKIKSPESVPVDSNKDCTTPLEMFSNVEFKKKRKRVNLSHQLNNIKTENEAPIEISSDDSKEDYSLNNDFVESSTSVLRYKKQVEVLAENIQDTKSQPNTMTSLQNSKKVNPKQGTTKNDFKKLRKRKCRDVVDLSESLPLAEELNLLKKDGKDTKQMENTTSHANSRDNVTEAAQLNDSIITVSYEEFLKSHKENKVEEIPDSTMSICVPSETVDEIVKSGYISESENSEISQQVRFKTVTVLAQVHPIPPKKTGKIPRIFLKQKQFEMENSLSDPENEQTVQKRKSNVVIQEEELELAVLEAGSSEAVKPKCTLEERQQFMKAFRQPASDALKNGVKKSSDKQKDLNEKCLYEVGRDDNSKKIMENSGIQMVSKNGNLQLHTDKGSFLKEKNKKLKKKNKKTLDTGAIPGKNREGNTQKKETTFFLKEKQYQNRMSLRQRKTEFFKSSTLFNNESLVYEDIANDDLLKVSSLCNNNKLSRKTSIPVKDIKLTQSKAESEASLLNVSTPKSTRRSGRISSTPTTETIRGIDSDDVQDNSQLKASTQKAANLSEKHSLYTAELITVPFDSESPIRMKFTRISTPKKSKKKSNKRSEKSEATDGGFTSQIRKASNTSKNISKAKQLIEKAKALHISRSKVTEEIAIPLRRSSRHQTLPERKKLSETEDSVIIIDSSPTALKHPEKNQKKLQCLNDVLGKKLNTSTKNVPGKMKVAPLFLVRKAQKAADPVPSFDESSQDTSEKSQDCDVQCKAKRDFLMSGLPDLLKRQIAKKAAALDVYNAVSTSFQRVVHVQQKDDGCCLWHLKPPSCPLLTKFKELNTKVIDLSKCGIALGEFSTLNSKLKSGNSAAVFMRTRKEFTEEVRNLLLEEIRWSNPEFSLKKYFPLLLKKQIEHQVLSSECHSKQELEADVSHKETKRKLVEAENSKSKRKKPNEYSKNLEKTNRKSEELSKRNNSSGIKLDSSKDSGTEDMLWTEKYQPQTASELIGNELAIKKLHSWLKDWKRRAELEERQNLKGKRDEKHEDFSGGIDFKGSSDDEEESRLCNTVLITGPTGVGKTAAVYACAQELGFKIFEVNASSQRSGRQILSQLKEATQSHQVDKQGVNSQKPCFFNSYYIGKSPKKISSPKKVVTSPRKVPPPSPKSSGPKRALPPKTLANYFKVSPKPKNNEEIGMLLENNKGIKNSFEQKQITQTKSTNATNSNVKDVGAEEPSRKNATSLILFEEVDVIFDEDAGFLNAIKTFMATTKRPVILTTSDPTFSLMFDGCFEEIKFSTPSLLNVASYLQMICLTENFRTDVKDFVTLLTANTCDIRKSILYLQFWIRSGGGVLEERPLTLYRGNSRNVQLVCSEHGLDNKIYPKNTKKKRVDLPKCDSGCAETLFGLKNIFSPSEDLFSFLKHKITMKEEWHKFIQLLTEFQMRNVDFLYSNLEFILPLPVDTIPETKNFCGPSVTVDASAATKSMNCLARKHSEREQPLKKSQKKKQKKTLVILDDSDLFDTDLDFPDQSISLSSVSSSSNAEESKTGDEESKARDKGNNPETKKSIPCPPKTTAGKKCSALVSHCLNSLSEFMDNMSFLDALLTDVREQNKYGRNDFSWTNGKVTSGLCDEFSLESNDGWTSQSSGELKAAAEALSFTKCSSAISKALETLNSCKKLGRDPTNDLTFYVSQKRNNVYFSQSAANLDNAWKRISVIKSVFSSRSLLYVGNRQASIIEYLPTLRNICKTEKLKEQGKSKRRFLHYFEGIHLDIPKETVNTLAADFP
UniProt Q9BV86, sequence (Q9BV86 whole entry, looked up): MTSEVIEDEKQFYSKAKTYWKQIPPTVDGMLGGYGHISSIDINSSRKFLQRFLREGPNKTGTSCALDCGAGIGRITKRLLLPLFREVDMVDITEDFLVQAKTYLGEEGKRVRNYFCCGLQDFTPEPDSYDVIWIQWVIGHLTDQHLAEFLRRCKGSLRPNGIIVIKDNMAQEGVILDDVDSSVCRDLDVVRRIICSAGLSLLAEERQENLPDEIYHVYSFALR
UniProt P16066, sequence (P16066 whole entry, looked up): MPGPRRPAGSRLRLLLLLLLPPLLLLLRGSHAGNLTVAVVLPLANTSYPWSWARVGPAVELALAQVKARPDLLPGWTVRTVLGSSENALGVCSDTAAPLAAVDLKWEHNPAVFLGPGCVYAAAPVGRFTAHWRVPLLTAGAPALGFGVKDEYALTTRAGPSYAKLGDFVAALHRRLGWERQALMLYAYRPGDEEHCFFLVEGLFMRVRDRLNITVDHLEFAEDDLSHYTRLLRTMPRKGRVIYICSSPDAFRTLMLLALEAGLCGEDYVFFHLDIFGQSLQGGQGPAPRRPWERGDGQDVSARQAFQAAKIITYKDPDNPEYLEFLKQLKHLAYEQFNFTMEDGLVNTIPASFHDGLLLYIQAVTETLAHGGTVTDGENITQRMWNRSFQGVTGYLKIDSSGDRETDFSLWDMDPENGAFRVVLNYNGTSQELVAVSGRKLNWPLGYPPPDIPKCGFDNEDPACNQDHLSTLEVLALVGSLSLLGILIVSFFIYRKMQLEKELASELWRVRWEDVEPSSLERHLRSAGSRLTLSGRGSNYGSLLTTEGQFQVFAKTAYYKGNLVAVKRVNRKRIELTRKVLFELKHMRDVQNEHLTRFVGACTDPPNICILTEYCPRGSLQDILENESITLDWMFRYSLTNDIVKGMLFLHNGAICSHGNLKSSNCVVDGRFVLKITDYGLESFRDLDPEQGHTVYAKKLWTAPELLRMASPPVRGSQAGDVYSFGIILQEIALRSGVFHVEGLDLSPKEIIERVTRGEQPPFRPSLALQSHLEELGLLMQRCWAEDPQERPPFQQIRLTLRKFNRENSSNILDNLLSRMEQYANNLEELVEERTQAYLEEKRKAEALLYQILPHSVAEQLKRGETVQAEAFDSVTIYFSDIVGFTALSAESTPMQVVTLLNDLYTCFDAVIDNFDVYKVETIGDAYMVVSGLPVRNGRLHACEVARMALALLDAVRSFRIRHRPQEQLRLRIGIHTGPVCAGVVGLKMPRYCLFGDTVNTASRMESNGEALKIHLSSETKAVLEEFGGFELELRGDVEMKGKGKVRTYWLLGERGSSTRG
UniProt Q99828, sequence (Q99828 whole entry, looked up): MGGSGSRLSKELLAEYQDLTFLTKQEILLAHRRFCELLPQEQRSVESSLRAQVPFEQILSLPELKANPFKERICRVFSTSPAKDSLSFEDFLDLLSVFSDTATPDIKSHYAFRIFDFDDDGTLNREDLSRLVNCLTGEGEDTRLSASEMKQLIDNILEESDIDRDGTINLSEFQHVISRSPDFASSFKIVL
UniProt O94925, sequence (O94925 whole entry, looked up, canonical isoform): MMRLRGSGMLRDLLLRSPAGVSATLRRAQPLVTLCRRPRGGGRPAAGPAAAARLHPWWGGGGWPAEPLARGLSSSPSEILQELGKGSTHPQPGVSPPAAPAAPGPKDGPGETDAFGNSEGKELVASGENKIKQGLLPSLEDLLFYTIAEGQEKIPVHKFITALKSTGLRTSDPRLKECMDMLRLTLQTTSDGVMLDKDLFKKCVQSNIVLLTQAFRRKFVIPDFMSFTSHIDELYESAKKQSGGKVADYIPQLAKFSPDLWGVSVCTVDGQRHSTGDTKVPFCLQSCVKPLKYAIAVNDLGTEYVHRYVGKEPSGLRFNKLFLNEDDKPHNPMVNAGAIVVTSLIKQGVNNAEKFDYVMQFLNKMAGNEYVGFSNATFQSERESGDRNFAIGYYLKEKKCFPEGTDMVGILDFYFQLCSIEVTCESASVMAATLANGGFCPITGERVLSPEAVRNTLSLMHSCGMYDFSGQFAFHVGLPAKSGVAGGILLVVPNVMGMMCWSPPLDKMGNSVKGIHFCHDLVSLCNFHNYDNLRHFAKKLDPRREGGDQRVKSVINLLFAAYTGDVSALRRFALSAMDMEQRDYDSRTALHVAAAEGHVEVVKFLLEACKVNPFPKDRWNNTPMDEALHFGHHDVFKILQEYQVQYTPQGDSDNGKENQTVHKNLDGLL

O=C1Cc2c([nH]c3ccc(Br)cc23)-c2ccccc2N1
inactive: [23]
inconclusive: [1] 56.2 µM [inhibitor, partial curve, poor fit] | [3] 29.1 µM [inhibitor, single point] | [4] 14.6 µM [activator, partial curve] | [5] 42.6 µM [falling, single point] | [6] 3.55 µM [cytotoxic, partial curve, poor fit] | [7] 39.8 µM [inhibitor, single point] | [8] 23.7 µM [inhibitor, partial curve] | [9] 22.4 µM [inhibitor, single point] | [10] 18.4 µM [activator, single point] | [13] 6.31 µM [inhibitor, single point] | [14] 25.9 µM [inhibitor, single point] | [15] 18.5 µM [inhibitor, single point] | [16] 37.9 µM [inhibitor, single point] | [17] 14.7 µM [inhibitor, single point] | [18] 23.3 µM [side channel, falling, single point] | [21] 6.31 µM [inhibitor, single point] | [22] 20 µM [inhibitor, full curve, poor fit]
active: [2] 0.411 µM | [11] 5.8 µM | [12] 2.59 µM | [19] 50.1 µM | [20] 12.6 µM
